Results published in PubChem BioAssay AID463173 (ICCB-Longwood Screening Facility, Harvard Medical School, 2010).
Out of some 52,000 compounds screened, about 1,700 (3.3%) were called active. No stated cut-off is given here; in the data, active means survival mostly below about 52% (no sharp cut-off); inactive means mostly above about 56%. Some of the results follow.

system: Wild type; test: S. aureus survival, RN4220 and DeltatarO strains – OD600, teichoic acid synthesis inhibitors, primary screen (AID 463173); settings: S. aureus RN4220 wild type/DeltatarO growth, OD600, 18 h, active compounds read low, screened at 18.75 µg/mL (by protocol)

Row | Structure (SMILES) | survival
1 | CCOC(=O)c1cc(S(=O)(=O)N2CCN(c3cccc(OC)c3)CC2)[nH]n1 | inactive: 120%
2 | CCCCn1cc(S(=O)(=O)c2ccc(Cl)cc2)c(=O)c2cc(F)c(N3CCCC(C)C3)cc21 (configuration not stated) | inactive: 127%
3 | CCOC(=O)Cn1c(=O)oc2cc(S(=O)(=O)N3CCCC(C)C3)ccc21 (configuration not stated) | inactive: 130%
4 | O=C(NCc1ccc(Cl)cc1)c1ccc2oc(=O)n(Cc3ccccc3)c2c1 | inactive: 129%
5 | COC(=O)c1c(-c2ccc(Cl)cc2)noc1N1CCN(c2cccc(C)c2C)CC1 | inactive: 85%
6 | c1ccc(-n2nc3ccc4nonc4c3n2)cc1 | inactive: 104%
7 | CCc1cnc2c(c1SCC(=O)Nc1ccc(OC)c(OC)c1)c(=O)n(C)c(=O)n2C | inactive: 71%
8 | CCCC1=Nc2cc(C(=O)NCC(C)c3ccccc3)ccc2Sc2ccccc21 (configuration not stated) | inactive: 75%
9 | COc1ccc(S(=O)(=O)N(CCc2ccccc2)CC(N)=O)cc1 | inactive: 111%
10 | CCOc1ccc(CNC(=O)Cn2cc3c(n2)-c2c(oc(C(=O)N4CCCC4)c2C)CC3)cc1 | inactive: 87%
11 | COc1cccc(CNC(=O)Cn2nc3c(cc2=O)CCCC3)c1OC | inactive: 79%
12 | CC1CCCN(C(=O)CCS(=O)(=O)c2cc3c(cc2Cl)NC(=O)CO3)C1 (configuration not stated) | inactive: 88%
13 | Cc1ccc(C2c3c(-c4ccccc4O)n[nH]c3C(=O)N2CCc2ccccc2)cc1 (configuration not stated) | inactive: 58%
14 | CC(=O)N1c2c(cc(Br)cc2S(=O)(=O)Nc2ccc(OC(F)(F)F)cc2)CC1C (configuration not stated) | inactive: 105%
15 | CCOC(=O)c1noc2ncn(Cc3cccc(C#N)c3)c(=O)c12 | inactive: 134%
16 | O=C(CCCn1c(=O)[nH]c2ccsc2c1=O)N1CCN(c2cccc(C(F)(F)F)c2)CC1 | inactive: 72%
17 | Cc1cc(Cl)ccc1NC(=O)CN1C(=O)COc2ccc(S(=O)(=O)N3CCC(C)CC3)cc21 | inactive: 106%
18 | O=C(Nc1ccc(Cl)cc1)c1cc(S(=O)(=O)N2CCCc3ccccc32)ccc1F | inactive: 136%
19 | COc1ccc(OCC(=O)Nc2nc(-c3ccc(Br)cc3)ns2)cc1 | inactive: 77%
20 | CCNc1nc(NC(C)CC)nc(Oc2ccc(OCC)nn2)n1 (configuration not stated) | inactive: 134%
21 | COc1ccc(NC(=O)NCc2c(-n3cccc3)sc3c2CCCC3)c(OC)c1 | inactive: 79%
22 | CCc1cccc(C)c1NC(=O)NC1COc2ccccc2C1 (configuration not stated) | inactive: 124%
23 | COc1ccccc1CN(Cc1ccco1)c1cnc(S(C)(=O)=O)nc1C(=O)Nc1ccccc1Cl | inactive: 83%
24 | Cc1c(C(=O)OC2CCC(C)CC2)[nH]c2c1C(=O)CC(c1ccccc1Cl)C2 (configuration not stated) | inactive: 88%
25 | CCOc1ccc(CCNC(=O)CCCc2nnc3n(C)c(=O)c4sccc4n23)cc1OCC | inactive: 83%
26 | COc1ccc(NC(=O)CSc2nc(-c3ccc(OC)c(OC)c3)[nH]c2-c2ccc(C)cc2)cc1 | inactive: 139%
27 | COc1ccc(NCc2cc3cc4c(cc3n(CC(=O)Nc3ccccc3)c2=O)OCO4)cc1 | inactive: 128%
